“And” between values parts separate entries of the source, which are not always exact repeats. Equal values may be shown once. Hit rate of the full screen: of about 94,000 compounds, about 6,200 (6.6%) were called active. Inconclusive results, whose numbers are uncertain, are shown with a selection of clear calls. Calls come from the whole dose curve; as a rule, active = well fitted inhibition curve with a large enough effect; inconclusive = small, poorly fitted or top-dose-only effect; inactive = flat fitted curve, though single readings scatter. Where the call is inconclusive, the potency comes from a doubtful curve fit.
assay: Cytotoxic Profiling in HEK 293 Cell Line of Diverse Libraries Using Quantitative High-Throughput Screening; conditions: HEK 293 viability, ATP luminescence (CellTiter-Glo), 48-72 h; series mostly up to 115 µM; note: nearly all actives have a fitted effect of over 60% in size
Summary of the method: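 250 HEK 293 cells/well; compound by pintool; incubated 48 or 72 hr at 37 degree Celsius; CellTiter-Glo added, 10 min RT, luminescence imaged.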
Potency is the fitted concentration of half-maximal effect; tags give direction and shape of the fitted curve.

SMILES	Potency
CCNC(=O)Nc1ccc(OCC(=O)NCc2ccc(N3CCOCC3)cc2)nc1	inactive
CN1CCC(NC(=O)C2(C)CN(C)Cc3ccc(Nc4ccccc4)nc32)CC1 (stereo unspecified)	inconclusive: 112 µM [inhibitor, partial curve, poor fit]
COc1ccc(-c2cc3c(ccn3Cc3ccncc3)c(N3CCOCC3)n2)cn1	inconclusive: 100 µM [inhibitor, partial curve]
Fc1ccc(-c2cnc3n2C[C@H](CN(Cc2ccccc2)Cc2ccccc2)OC3)cc1	active: 35.5 µM
COC(=O)[C@@H]1Cc2c([nH]c3ccccc23)[C@H]2C[C@@H](NCc3cccnc3)C[C@@H](c3ccc(F)cc3)N21	active: 22.4 µM
COc1cccc(-c2ccc(CN3C4CCC3CN(C(=O)Nc3ccccc3F)C4)cc2)c1	inconclusive: 44.7 µM [inhibitor, partial curve, poor fit] and active: 39.8 µM
Cc1noc2c(-c3cccc(CO)c3)cc(-c3cccc(C(F)(F)F)c3)nc12	active: 44.7 µM
COc1cc(NC(=O)[C@H]2CC[C@H]3CO[C@](C)(NC(=O)c4cnccn4)C(=O)N32)ccc1F	inconclusive: 31.6 µM [inhibitor, partial curve]
COc1ccccc1-c1nc(C(=O)NC2CC2)n2ccccc12	inconclusive: 79.4 µM [inhibitor, partial curve, poor fit]
Cc1cc(=O)n(CC(=O)Nc2ccc3c(c2)OCCO3)c(N2CCc3ccccc3C2)n1	inconclusive: 50.1 µM [inhibitor, partial curve, poor fit]
O=C1CN([S+](=O)([O-])c2ccc(F)cc2)CC(O)CN1Cc1ccc(Cl)cc1 (stereo unspecified)	inconclusive: 79.4 µM [inhibitor, single point]
CCOc1cc(C(=O)NC2CCN(c3cc(-c4ccccc4)[nH]n3)C2)cc(OCC)c1OCC (stereo unspecified)	inconclusive: 50.1 µM [inhibitor, partial curve, poor fit]
COCCn1c(=O)c(C(=O)NC(C)C)nc2cccnc21	inactive
COc1ccc2[nH]cc(CCNC(=O)C3CCCCC(=O)N3Cc3ccccc3)c2c1 (stereo unspecified)	inactive
c1ccc(-c2n[nH]c(CC3CCNC3)n2)cc1 (stereo unspecified)	inactive
COc1ccccc1CC(=O)N1CCCc2ncc(C(=O)N(C)c3ccccc3)cc21	inconclusive: 100 µM [inhibitor, partial curve, poor fit]
COc1ccc(NC(=O)O[C@@H]2CO[C@H]3[C@@H]2OC[C@@H]3NC(=O)C2CCCCC2)cc1	inconclusive: 63.1 µM [inhibitor, full curve, poor fit]
CC1=C[C@@H](CC#N)[C@H](C(C)C)C[C@H]1CC(=O)N1CCN(c2cnccn2)CC1	inconclusive: 79.4 µM [inhibitor, partial curve, poor fit]
COCCN1Cc2[nH]nc(-c3cccc(OC)c3)c2CC1=O	inconclusive: 126 µM [inhibitor, single point]
CCCn1c(C)cnc1CC1CCN(C(=O)NCc2ccc(C)cc2)CC1	inactive
CCc1cccc(NC(=O)C2(Cc3ccccc3)CCCCC(=O)N2)c1 (stereo unspecified)	inconclusive: 89.1 µM [inhibitor, single point]
CS(=O)(=O)N1CCC(OC2CCN(C(=O)Nc3cccc(Cl)c3F)CC2)CC1	inconclusive: 89.1 µM [inhibitor, single point]

SMILES	Potency
Fc1ccc(-c2ccc3ncc(Nc4cc(F)cc(N5CCOCC5)c4)n3n2)cc1	active: 63.1 µM
COc1ccc(-n2nc3n(c2=O)CCN(C(=O)c2ccc4c(c2)OCO4)C3)cc1	inconclusive: 31.6 µM [inhibitor, full curve]
O=C(NCC1CCCCCC1)C1CCCN(c2nccc(Nc3ccccc3F)n2)C1 (stereo unspecified)	active: 28.2 µM
Cc1ccc(CNC(=O)N2CCC(c3noc(-c4ccccc4)n3)C2)cc1 (stereo unspecified)	active: 39.8 µM
O=C(c1ccc2c(c1)OCO2)N1CCC2(CC1)NC(=O)N(Cc1ccc(F)cc1)C2=O	inconclusive: 3.55 µM [inhibitor, full curve, poor fit]
CNC(=O)c1ccc2c(c1)C1(CCN(CC3CC3)C1)CN2Cc1ccccc1 (stereo unspecified)	active: 100 µM
Cc1noc(C)c1-c1cc2c(c(-c3cccc(O)c3)c1)C(=O)N(C)C2	inconclusive: 63.1 µM [inhibitor, partial curve, poor fit]
COc1ccccc1Nc1ccnc(N2CCC(NC(=O)c3ccc(C)cc3)CC2)n1	inconclusive: 79.4 µM [inhibitor, single point]
CCOC(=O)C1=C(C)N=C2SC=C(CC(=O)N3CCC(C)CC3)N2C1c1cccc(OC)c1 (stereo unspecified)	inconclusive: 50.1 µM [inhibitor, partial curve, poor fit]
c1ccc(-c2ccnc(NCC3OCCc4ccccc43)n2)nc1 (stereo unspecified)	active: 39.8 µM
CC(=O)Nc1ccc(-c2nnc3n2CCN(C(=O)c2ccccc2Cl)C3)cc1	inactive
O=C(NCc1ccccc1)C1COC2(CCN(C(=O)c3cccs3)CC2)N1C(=O)c1ccco1 (stereo unspecified)	inactive
O=C1CCN(Cc2ccncc2)CCCC(C(=O)Nc2ccccc2CCc2ccncc2)CCN1 (stereo unspecified)	inactive
COc1ccc(S(=O)(=O)N2CCC(CCOc3ccccc3F)C2)cc1 (stereo unspecified)	inconclusive: 79.4 µM [inhibitor, partial curve, poor fit]
O=C(NCCNC(=O)c1ccccn1)c1ccc(-c2cncnc2)cc1	inactive
Cc1cccc(OCCc2noc(C3CNC3)n2)c1	active: 28.2 µM
Cc1ccccc1C(=O)N1CCc2nc(C3CC3)nc(-c3ccc(Cl)cc3)c2C1	inconclusive: 31.6 µM [inhibitor, partial curve, poor fit]
COc1ccc(-c2ncc3c(n2)OCCN(Cc2ccccc2)C3=O)cc1	inconclusive: 44.7 µM [inhibitor, partial curve, poor fit]
CC(C)N1C[C@H](O)C[C@H]1c1nnc2n1CCN(C(=O)c1ccccc1)CC2	inactive
O=C(Nc1nc2c(s1)CCC2)C1CC(=O)N(c2n[nH]c3ccccc23)C1 (stereo unspecified)	inconclusive: 50.1 µM [inhibitor, partial curve, poor fit]
Cc1ccc(N2CCN(C(=O)C[C@H]3NC(=O)c4ccccc4NC3=O)CC2)c(C)c1	inconclusive: 79.4 µM [inhibitor, single point]
N#Cc1cccc(CN2C[C@@H](CO)[C@H](c3ccccn3)C2)c1	inactive

SMILES	Potency
COc1cccc(C2CNC(=O)c3nc(-c4ccc(C(=O)N(C)C)o4)[nH]c3C2)c1 (stereo unspecified)	inconclusive: 31.6 µM [inhibitor, partial curve]
COCCOC1CN(C2CCN(Cc3cccc(C)c3)CC2)C12CCCCC2 (stereo unspecified)	inconclusive: 44.7 µM [inhibitor, partial curve, poor fit]
O=C(NCc1cccc(C(F)(F)F)c1)c1ccc2nc(-c3ccncc3)oc2c1	inconclusive: 50.1 µM [inhibitor, partial curve, poor fit]
COc1cccc(-c2ccc(CN3CCCC3C(=O)N3CCOCC3)cc2)c1 (stereo unspecified)	inconclusive: 89.1 µM [inhibitor, single point]
O=C(NCCCc1ccccc1)C1CCCN(c2nc3ncccc3o2)C1 (stereo unspecified)	inactive
COc1ccc(-c2ccc(NC(=O)c3ccc(C)cc3)cc2)nn1	inactive
CC(=O)N1CCN(Cc2ccccc2-c2ccc(C)c(Cl)c2)CC1	inconclusive: 44.7 µM [inhibitor, partial curve, poor fit]
Cc1ccc(C(=O)N2CCCN(c3cc(-c4ccc(Cl)cc4)[nH]n3)CC2)cc1C	inconclusive: 35.5 µM [inhibitor, partial curve, poor fit]
COCCOCC(=O)N1CCC(N2C[C@H](OC)[C@@H]2c2cccnc2)CC1	inactive
CC(C)N1C[C@@H]2C[C@H]1C(=O)N(Cc1cccnc1)c1ccccc1O2	inactive
CCc1nc2c(c(-c3ccc(Cl)cc3)n1)CN(Cc1cccc(OC)c1)CC2	inconclusive: 20 µM [inhibitor, full curve, poor fit]
Cc1nn2c(c1-c1cccnc1N1CCOCC1)N(CCC(C)C)CCC2	active: 39.8 µM
COc1cccc(C(=O)N2CCCC2C(=O)N2CCC(c3nc4ccncc4[nH]3)C2)c1 (stereo unspecified)	inactive
Cc1ccc([S+](=O)([O-])c2nnn3c2nc(NC2CC2)c2ccccc23)cc1C	inactive
COc1cccc(CN2CCCC(COc3ccccc3C(=O)N3CCC(C)CC3)C2)c1 (stereo unspecified)	inconclusive: 56.2 µM [inhibitor, partial curve, poor fit]
Cc1nn(-c2ccccc2)c2c1C(C(C)C)N(C1CN(C(=O)c3cccc(Cl)c3)C1)C2=O (stereo unspecified)	inconclusive: 89.1 µM [inhibitor, single point]
COc1ccc(N2CC3CCC(C2)N3C(=O)c2ccc3c(c2)OCO3)cc1	inconclusive: 14.1 µM [inhibitor, partial curve, poor fit]
O=C(Cc1ccccc1F)N1CCCN(c2cc(-c3ccc(Cl)cc3)[nH]n2)CC1	inconclusive: 50.1 µM [inhibitor, partial curve, poor fit]
CCn1c(CO)nnc1C1CC(NC(=O)c2sccc2N)C1 (stereo unspecified)	inactive
CNC(=O)c1cc(C2CC2)nc2c1c(C1CCCN1[S+](=O)([O-])c1cccs1)nn2C (stereo unspecified)	inconclusive: 63.1 µM [inhibitor, partial curve, poor fit]
Cc1cc(C)cc(-c2ccc(CN3CCCC(NC(=O)c4ccc(F)cc4)C3)cc2)c1 (stereo unspecified)	inactive
COC(=O)CNC(=O)N1CCC2(CC1)N(Cc1ccccc1)C(=O)CS2(=O)=O	inactive

From PubChem BioAssay AID1345083 (National Center for Advancing Translational Sciences (NCATS), 2018)
